According to ChEMBL document CHEMBL1125073, “Antitubulin effects of derivatives of 3-demethylthiocolchicine, methylthio ethers of natural colchicinoids, and thioketones derived from thiocolchicine. Comparison with colchicinoids” (J Med Chem, 1990):

organism: Mus musculus; experiment: not given; conditions: in vivo, im

Going from `COc1c(O)cc2c(c1OC)-c1ccc(OC)c(=O)cc1[C@@H](NC(C)=O)CC2` [3-DESMETHYLCOLCHICIN] to `CN[C@H]1CCc2cc(OC)c(OC)c(OC)c2-c2ccc(OC)c(=O)cc21` [DEMECOLCINE], the Toxicity rises from 26 mg/kg to 237 mg/kg (9.1-fold).

`COc1cc2c(c(OC)c1OC)-c1ccc(OC)c(=O)cc1[C@@H](N)CC2` [DEACETYLCOLCHICINE] gave a Toxicity of 28 mg/kg.

system: L1210; experiment: cells; conditions: Mus musculus

`CCCC(=O)N[C@H]1CCc2cc(OC(C)=O)c(OC)c(OC)c2-c2ccc(SC)c(=O)cc21` and `CCCC(=O)N[C@H]1CCc2cc(OC(=O)CCC)c(OC)c(OC)c2-c2ccc(SC)c(=O)cc21` are the same in IC50: 70 nM for the first, 70 nM for the second.

Going from `CCCCOC(=O)N[C@H]1CCc2cc(OC)c(OC)c(OC)c2-c2ccc(OC)c(=O)cc21` to `CCCCOC(=O)N(C)[C@H]1CCc2cc(OC)c(OC)c(OC)c2-c2ccc(OC)c(=O)cc21`, the IC50 rises from 20 nM to 70 nM (3.5-fold). The first is the more potent here.

`CCCC(=O)Oc1cc2c(c(OC)c1OC)-c1ccc(SC)c(=O)cc1[C@@H](NC(C)=O)CC2` and `CCOCC(=O)Oc1cc2c(c(OC)c1OC)-c1ccc(SC)c(=O)cc1[C@@H](NC(C)=O)CC2` are the same in IC50: 30 nM for the first, 30 nM for the second.

Going from `COc1c(O)cc2c(c1OC)-c1ccc(SC)c(=O)cc1[C@@H](NC=O)CC2` to `CCCC(=O)N[C@H]1CCc2cc(O)c(OC)c(OC)c2-c2ccc(SC)c(=O)cc21`, the IC50 rises from 40 nM to 60 nM (1.5-fold).

`CCCCOC(=O)Oc1cc2c(c(OC)c1OC)-c1ccc(SC)c(=O)cc1[C@@H](NC(C)=O)CC2` and `CCOC(=O)Oc1cc2c(c(OC)c1OC)-c1ccc(SC)c(=O)cc1[C@@H](NC(C)=O)CC2` are within 1.5-fold of each other in IC50: 30 nM for the first, 40 nM for the second.

First: CN[C@H]1CCc2cc(OC)c(OC)c(OC)c2-c2ccc(SC)c(=O)cc21
Second: COc1cc2c(c(OC)c1OC)-c1ccc(SC)c(=O)cc1[C@@H](N)CC2
The IC50 of the first is 2-fold lower: 20 nM for the first, 40 nM for the second.

`COc1c(O)cc2c(c1OC)-c1ccc(SC)c(=O)cc1[C@@H](NC(=O)C(F)(F)F)CC2` and `COc1c(O)cc2c(c1OC)-c1ccc(SC)c(=O)cc1[C@@H](N(C)C(=O)C(F)(F)F)CC2` are within 1.5-fold of each other in IC50: 10 nM for the first, 7 nM for the second.
